The source of these data is patent publication US7160888B2, “[1,8]naphthyridin-2-ones and related compounds for the treatment of schizophrenia” (Warner Lambert Company LLC, priority 2003, dated 2007).

One assay concerns the target dopamine D2 receptor (Homo sapiens, UniProt P14416). Nature of the assay: biochemical. The following applies: D2 Ki (nM), Table 1; 0.4 nM [3H]spiperone, CHO-hD2L membranes.
Chain of UniProt P14416 (P14416 whole entry): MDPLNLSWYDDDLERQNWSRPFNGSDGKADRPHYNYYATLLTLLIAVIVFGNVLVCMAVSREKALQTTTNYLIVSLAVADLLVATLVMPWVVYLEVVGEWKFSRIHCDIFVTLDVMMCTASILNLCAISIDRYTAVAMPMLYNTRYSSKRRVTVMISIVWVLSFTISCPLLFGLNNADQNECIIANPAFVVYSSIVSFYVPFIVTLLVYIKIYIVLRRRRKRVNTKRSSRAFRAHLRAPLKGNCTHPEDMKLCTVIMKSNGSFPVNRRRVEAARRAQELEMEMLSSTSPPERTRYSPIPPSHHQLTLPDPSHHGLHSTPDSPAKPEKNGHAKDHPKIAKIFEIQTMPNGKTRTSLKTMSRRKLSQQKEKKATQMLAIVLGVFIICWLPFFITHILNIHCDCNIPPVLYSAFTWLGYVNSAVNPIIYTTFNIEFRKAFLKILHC
Take `CC1(C)CCc2cccc(N3CCN(CCCCOc4ccc5ccc(=O)[nH]c5n4)CC3)c2C1` [Example B37, 7-{4-[4-(7,7-Dimethyl-5,6,7,8-tetrahydro-naphthalen-1-yl)-piperazin-1-yl]-butoxy}-1H-[1,8]naphthyridin-2-one]: the Ki was 4 nM.

Regarding `O=C1c2c(cccc2N2CCN(CCCCOc3ccc4ccc(=O)[nH]c4n3)CC2)CCC1(F)F` [Example B38, 7-{4-[4-(7,7-Difluoro-8-oxo-5,6,7,8-tetrahydro-naphthalen-1-yl)-piperazin-1-yl]-butoxy}-1H-[1,8]naphthyridin-2-one], the affinity, expressed as Ki, was 0.6 nM. Against the preceding molecule, the Ki is about 6.7-fold lower. Molecule `O=c1ccc2ccc(OCCCCN3CCN(c4cccc5c4CC(F)(F)CC5)CC3)nc2[nH]1` [Example B39, 7-{4-[4-(7,7-Difluoro-5,6,7,8-tetrahydro-naphthalen-1-yl)-piperazin-1-yl]-butoxy}-1H-[1,8]naphthyridin-2-one] showed a Ki of 1 nM.

On to `O=C1CCc2cccc(N3CCN(CCCCOc4ccc5ccc(=O)[nH]c5n4)CC3)c2C1` [Example B40, 7-{4-[4-(7-Oxo-5,6,7,8-tetrahydro-naphthalen-1-yl)-piperazin-1-yl]-butoxy}-1H-[1,8]naphthyridin-2-one], for which affinity was put at a Ki of 1.4 nM. The same measure, in the same setting: to `O=c1ccc2ccc(OCCCCN3CCN(c4cccc5c4CC(O)CC5)CC3)nc2[nH]1` (centres unmarked) [Example B41, 7-{4-[4-(7-Hydroxy-5,6,7,8-tetrahydro-naphthalen-1-yl)-piperazin-1-yl]-butoxy}-1H-[1,8]naphthyridin-2-one] belongs 4.2 nM; to `O=C1CCCc2c1cccc2N1CCN(CCCCOc2ccc3ccc(=O)[nH]c3n2)CC1` [Example B42, 7-{4-[4-(5-Oxo-5,6,7,8-tetrahydro-naphthalen-1-yl)-piperazin-1-yl]-butoxy}-1H-[1,8]naphthyridin-2-one], 8.5 nM. Molecule `O=c1ccc2ccc(OCCCCN3CCN(c4cccc5c4CCCC5(F)F)CC3)nc2[nH]1` [Example B43, 7-{4-[4-(5,5-Difluoro-5 6,7,8-tetrahydro-naphthalen-1-yl)-piperazin-1-yl]-butoxy}-1H-[1,8]naphthyridin-2-one] showed a Ki of 3 nM. Regarding `O=C1CCc2cccc(N3CCN(CCCCOc4ccc5ccc(=O)[nH]c5n4)CC3)c21` [Example B44, 7-{4-[4-(3-Oxo-indan-4-yl)-piperazin-1-yl]-butoxy}-1H-[1,8]naphthyridin-2-one], the Ki is 0.7 nM. This Ki is about 4.3-fold lower than that of the molecule before. Same read-out and setting: the value for `O=C1Cc2cccc(N3CCN(CCCCOc4ccc5ccc(=O)[nH]c5n4)CC3)c2C1` [Example B45, 7-{4-[4-(2-Oxo-indan-4-yl)-piperazin-1-yl]-butoxy}-1H-[1,8]naphthyridin-2-one] was 0.6 nM; that for `O=c1ccc2ccc(OCCCCN3CCN(c4cccc5c4CC(F)(F)C5)CC3)nc2[nH]1` [Example B46, 7-{4-[4-(2,2-Difluoro-indan-4-yl)-piperazin-1-yl]-butoxy}-1H-[1,8]naphthyridin-2-one] was 1 nM; that for `O=c1ccc2ccc(OCCCCN3CCN(c4cccc5ccccc45)CC3)nc2[nH]1` [Example B47, 7-[4-(4-Naphthalen-1-yl-piperazin-1-yl)-butoxy]-1H-[1,8]naphthyridin-2-one] was 0.3 nM. On the same count and under the same terms, the value for `O=c1ccc2ccc(OCCCCN3CCN(c4cccc5cc(F)ccc45)CC3)nc2[nH]1` [Example B48, 7-{4-[4-(6-Fluoro-naphthalen-1-yl)-piperazin-1-yl]-butoxy}-1H-[1,8]naphthyridin-2-one] was 1 nM; that for `O=c1ccc2ccc(OCCCCN3CCN(c4cccc5cccc(F)c45)CC3)nc2[nH]1` [Example B50, 7-{4-[4-(8-Fluoro-naphthalen-1-yl)-piperazin-1-yl]-butoxy}-1H-[1,8]naphthyridin-2-one] was 1 nM; that for `O=c1ccc2ccc(OCCCCN3CCN(c4cccc5c(F)cccc45)CC3)nc2[nH]1` [Example B51, 7-{4-[4-(5-Fluoro-naphthalen-1-yl)-piperazin-1-yl]-butoxy}-1H-[1,8]naphthyridin-2-one] was 3.5 nM. As to `O=c1ccc2ccc(OCCCCN3CCN(c4ccc(F)c5ccccc45)CC3)nc2[nH]1` [Example B52, 7-{4-[4-(4-Fluoro-naphthalen-1-yl)-piperazin-1-yl]-butoxy}-1H-[1,8]naphthyridin-2-one], the Ki amounted to 3.5 nM. `O=c1ccc2ccc(OCCCCN3CCN(c4cc(F)cc5ccccc45)CC3)nc2[nH]1` [Example B53, 7-{4-[4-(3-Fluoro-naphthalen-1-yl)-piperazin-1-yl]-butoxy}-1H-[1,8]naphthyridin-2-one] showed a Ki of 1.1 nM. On to `O=c1ccc2ccc(OCCCCN3CCN(c4c(F)ccc5ccccc45)CC3)nc2[nH]1` [Example B54, 7-{4-[4-(2-Fluoro-naphthalen-1-yl)-piperazin-1-yl]-butoxy}-1H-[1,8]naphthyridin-2-one], for which the affinity, expressed as Ki, was 2.8 nM. On to `O=c1ccc2ccc(OCCCCN3CCN(c4cccc5cc(F)c(F)cc45)CC3)nc2[nH]1` [Example B55, 7-{4-[4-(6,7-Difluoro-naphthalen-1-yl)-piperazin-1-yl]-butoxy}-1H-[1,8]naphthyridin-2-one], for which the Ki is 1 nM. The same measure, in the same setting: the value for `O=c1ccc2ccc(OCCCCN3CCN(c4cccc5cc(Cl)ccc45)CC3)nc2[nH]1` [Example B57, 7-{4-[4-(6-Chloro-naphthalen-1-yl)-piperazin-1-yl]-butoxy}-1H-[1,8]naphthyridin-2-one] was 4.1 nM; that for `O=c1ccc2ccc(OCCCCN3CCN(c4cccc5c(Cl)cccc45)CC3)nc2[nH]1` [Example B58, 7-{4-[4-(5-Chloro-naphthalen-1-yl)-piperazin-1-yl]-butoxy}-1H-[1,8]naphthyridin-2-one] was 12.5 nM.

`O=c1ccc2ccc(OCCCCN3CCN(c4cccc5cccc(Cl)c45)CC3)nc2[nH]1` [Example B59, 7-{4-[4-(8-Chloro-naphthalen-1-yl)-piperazin-1-yl]-butoxy}-1H-[1,8]naphthyridin-2-one] displayed a Ki of 5.1 nM.

Staying with this assay, now noted: D2 Ki (nM), Table 2; 0.4 nM [3H]spiperone, CHO-hD2L membranes.
Regarding `O=C1CCc2cccc(N3CCN(CCCCOc4ccc5ccc(=O)[nH]c5n4)CC3)c2N1` [Example B37′, 7-{4-[4-(2-Oxo-1,2,3,4-tetrahydro-quinolin-8-yl)-piperazin-1-yl]-butoxy}-1H-[1,8]naphthyridin-2-one], the Ki is 3.2 nM. `CN1C(=O)CCc2cccc(N3CCN(CCCCOc4ccc5ccc(=O)[nH]c5n4)CC3)c21` [Example B38′, 7-{4-[4-(1-Methyl-2-oxo-1,2,3,4-tetrahydro-quinolin-8-yl)-piperazin-1-yl]-butoxy}-1H-[1,8]naphthyridin-2-one] yielded a Ki of 3 nM. On to `O=c1ccc2ccc(OCCCCN3CCN(c4cccc5nonc45)CC3)nc2[nH]1` [Example B39′, 7-[4-(4-Benzo[1,2,5]oxadiazol-4-yl-piperazin-1-yl)-butoxy]-1H-[1,8]naphthyridin-2-one], for which the Ki stood at 5.7 nM.

`O=c1ccc2ccc(OCCCCN3CCN(c4cccc5nsnc45)CC3)nc2[nH]1` [Example B40′, 7-[4-(4-Benzo[1,2,5]thiadiazol-4-yl-piperazin-1-yl)-butoxy]-1H-[1,8]naphthyridin-2-one]: the Ki is 3.9 nM.

On to `O=c1ccc2ccc(OCCCCN3CCN(c4cccc5nc(C(F)(F)F)[nH]c45)CC3)nc2[nH]1` [Example B41′, 7-{4-[4-(2-Trifluoromethyl-3H-benzoimidazol-4-yl)-piperazin-1-yl]-butoxy}-1H-[1,8]naphthyridin-2-one], for which the Ki stood at 0.8 nM.
